Results: PMC9911399, “Two distinct binding modes provide the RNA-binding protein RbFox with extraordinary sequence specificity”
Substitutions are numbered along the chain they refer to; changes in the protein carry UniProt numbers. This is one part of the list.

T1: RBFOX1 RRM (Homo sapiens, UniProt Q9NWB1 109-208)
T1 sequence: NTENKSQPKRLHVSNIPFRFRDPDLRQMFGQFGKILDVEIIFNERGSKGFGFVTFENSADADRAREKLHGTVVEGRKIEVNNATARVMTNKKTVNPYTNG

B1: UUCUUAC (DNA:RNA)
RNA: GGGAGACCGGAAUUCAGAUUGUCCUUCUUACUUAAAUCCCGUCGUAGCCACCA
DNA 1: CAATCTGAATTCCGGTCTCCC
DNA 2: TGGTGGCTACGACGGGATT
B2: GCUACAG (DNA:RNA)
RNA: B1 RNA with U25G, U26C, C27U, U28A, U29C, C31G
DNA 1: CAATCTGAATTCCGGTCTCCC
DNA 2: TGGTGGCTACGACGGGATT
B3: CCACAUG (DNA:RNA)
RNA: GGGAGACCGGAAUUCAGAUUGUCCCCACAUGUUAAAUCCCGUCGUAGCCACCA
DNA 1: CAATCTGAATTCCGGTCTCCC
DNA 2: TGGTGGCTACGACGGGATT
B4: UCGGUCG (DNA:RNA)
RNA: B3 RNA with C25U, A27G, C28G, A29U, U30C
DNA 1: CAATCTGAATTCCGGTCTCCC
DNA 2: TGGTGGCTACGACGGGATT
B5: UCACCCC (DNA:RNA)
RNA: B3 RNA with C25U, A29C, U30C, G31C
DNA 1: CAATCTGAATTCCGGTCTCCC
DNA 2: TGGTGGCTACGACGGGATT
B6: AUUAUUA (DNA:RNA)
RNA: B1 RNA with U25A, C27U, U28A, A30U, C31A
DNA 1: CAATCTGAATTCCGGTCTCCC
DNA 2: TGGTGGCTACGACGGGATT
B7: ACAGGAA (DNA:RNA)
RNA: B3 RNA with C25A, C28G, A29G, U30A, G31A
DNA 1: CAATCTGAATTCCGGTCTCCC
DNA 2: TGGTGGCTACGACGGGATT
B8: GGGUACG (DNA:RNA)
RNA: B3 RNA with C25G, C26G, A27G, C28U, U30C
DNA 1: CAATCTGAATTCCGGTCTCCC
DNA 2: TGGTGGCTACGACGGGATT
B9: UUCCCAG (DNA:RNA)
RNA: B1 RNA with U28C, U29C, C31G
DNA 1: CAATCTGAATTCCGGTCTCCC
DNA 2: TGGTGGCTACGACGGGATT
B10: GGUAGGA (DNA:RNA)
RNA: GGGAGACCGGAAUUCAGAUUGUCCGGUAGGAUUAAAUCCCGUCGUAGCCACCA
DNA 1: CAATCTGAATTCCGGTCTCCC
DNA 2: TGGTGGCTACGACGGGATT
B11: AAGUUAG (DNA:RNA)
RNA: B1 RNA with U25A, U26A, C27G, C31G
DNA 1: CAATCTGAATTCCGGTCTCCC
DNA 2: TGGTGGCTACGACGGGATT
B12: GAUUACC (DNA:RNA)
RNA: B10 RNA with G26A, A28U, G29A, G30C, A31C
DNA 1: CAATCTGAATTCCGGTCTCCC
DNA 2: TGGTGGCTACGACGGGATT
B13: CUCAUUA (DNA:RNA)
RNA: B1 RNA with U25C, U28A, A30U, C31A
DNA 1: CAATCTGAATTCCGGTCTCCC
DNA 2: TGGTGGCTACGACGGGATT
B14: CCCGCCG (DNA:RNA)
RNA: B3 RNA with A27C, C28G, A29C, U30C
DNA 1: CAATCTGAATTCCGGTCTCCC
DNA 2: TGGTGGCTACGACGGGATT
B15: CGCAGUG (DNA:RNA)
RNA: B3 RNA with C26G, A27C, C28A, A29G
DNA 1: CAATCTGAATTCCGGTCTCCC
DNA 2: TGGTGGCTACGACGGGATT
B16: AUAAUAC (DNA:RNA)
RNA: B1 RNA with U25A, C27A, U28A
DNA 1: CAATCTGAATTCCGGTCTCCC
DNA 2: TGGTGGCTACGACGGGATT
B17: CCACAUA (DNA:RNA)
RNA: B3 RNA with G31A
DNA 1: CAATCTGAATTCCGGTCTCCC
DNA 2: TGGTGGCTACGACGGGATT
B18: GGCCGGA (DNA:RNA)
RNA: B10 RNA with U27C, A28C
DNA 1: CAATCTGAATTCCGGTCTCCC
DNA 2: TGGTGGCTACGACGGGATT
B19: AUCAUCA (DNA:RNA)
RNA: B1 RNA with U25A, U28A, A30C, C31A
DNA 1: CAATCTGAATTCCGGTCTCCC
DNA 2: TGGTGGCTACGACGGGATT
B20: AGAACCA (DNA:RNA)
RNA: B10 RNA with G25A, U27A, G29C, G30C
DNA 1: CAATCTGAATTCCGGTCTCCC
DNA 2: TGGTGGCTACGACGGGATT

target: T1, RBFOX1 RRM; assay: EMSA; HiTS-Eq, 1 nM pool, 10 min; buffer printed only for the single-RNA assays: 10 mM Tris pH 7.5, 150 mM NaCl, 3.4 mM EDTA, 0.001% NP-40, 30 C; settings: tags: His6 N-terminal (pET28a); label: 5' 32P
Procedure, shortened: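 Purified RbFox RRM, wild type or mutant, was incubated for 10 min in 50 µL with 1 nM of a 5′-radiolabelled RNA pool carrying 7 randomized nucleotides, whose flanks were annealed to DNA oligonucleotides, over a series of increasing protein concentrations. Unbound RNA was resolved on 8% native PAGE, cut out, reverse-transcribed, barcoded by PCR and sequenced on an Illumina HiSeq 2500. Relative association constants were derived from changes in read counts for each RNA species versus the control reaction and normalised to the cognate motif.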

First: B1
Second: B2
The binding signal of the first is lower: 0.00693 KA relative to UGCAUGU for the first, 0.0136 KA relative to UGCAUGU for the second.

First: B3
Second: B4
The binding signal of the first is lower: 0.00835 KA relative to UGCAUGU for the first, 0.0208 KA relative to UGCAUGU for the second.

First: B5
Second: B6
The binding signal of the first is lower: 0.00128 KA relative to UGCAUGU for the first, 0.00154 KA relative to UGCAUGU for the second.

First: B7
Second: B8
The binding signal of the first is lower: 0.00607 KA relative to UGCAUGU for the first, 0.0136 KA relative to UGCAUGU for the second.

Compared with B9, B10 is lower in binding signal: 0.00757 KA relative to UGCAUGU for the first, 0.00184 KA relative to UGCAUGU for the second.

First: B11
Second: B12
The binding signal of the first is higher: 0.0116 KA relative to UGCAUGU for the first, 0.00633 KA relative to UGCAUGU for the second.

Compared with B13, B14 is higher in binding signal: 0.000718 KA relative to UGCAUGU for the first, 0.0132 KA relative to UGCAUGU for the second.

First: B15
Second: B16
The binding signal of the first is higher: 0.0177 KA relative to UGCAUGU for the first, 0.00118 KA relative to UGCAUGU for the second.

First: B17
Second: B18
The binding signal of the first is lower: 0.000851 KA relative to UGCAUGU for the first, 0.0111 KA relative to UGCAUGU for the second.

Compared with B19, B20 is higher in binding signal: 0.00109 KA relative to UGCAUGU for the first, 0.00358 KA relative to UGCAUGU for the second.
